Entries after “also recorded” stand apart in the source; their conditions may differ.
T1: PAR4 (Homo sapiens, UniProt Q96RI0)
T1 construct: host or cells: HEK293 cells transfected with FLAG-PAR4 and/or isolated human platelets
T1 sequence (Q96RI0 18-385): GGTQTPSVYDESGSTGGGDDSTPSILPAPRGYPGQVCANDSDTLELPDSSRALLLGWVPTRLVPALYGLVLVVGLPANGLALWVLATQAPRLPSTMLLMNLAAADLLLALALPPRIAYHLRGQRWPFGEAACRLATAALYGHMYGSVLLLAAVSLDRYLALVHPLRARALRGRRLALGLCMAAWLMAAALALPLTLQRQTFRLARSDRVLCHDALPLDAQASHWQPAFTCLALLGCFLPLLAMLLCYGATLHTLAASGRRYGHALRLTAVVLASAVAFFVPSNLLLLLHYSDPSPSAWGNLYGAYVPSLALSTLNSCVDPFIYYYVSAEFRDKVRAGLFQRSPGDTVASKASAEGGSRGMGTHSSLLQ

B1: 5H.RD2: PAR4-binding, non-inhibitory monoclonal antibody, IgG1/K, SEQ ID NOs 32 and 33 (antibody, V domains shown)
VH: EVQLVESGGDLVKPGGSLRLSCSASGFTFFNTWMNWVRQAPGKGLEWVGRVKSKNDGGTKDYAAPVTGRFTISRDDSKDTLYLQMNSLKTEDTAVYYCTTDPHYDFWSAYWGQGTLVTVSS
VL: [letters of about 100 residues not shown]QFMYTFGQGTKLEIK
modifications: VH of 5H.RD2; VL of 5H.RD2
B2: MoB5H D2: hybridoma supernatant clone, second screening; likely parent of 5H.RD2 (antibody, V domains shown)
VH: B1 VH
VL: [letters of about 100 residues not shown]QFMYTFGQGTKLEIK

Columns and labels:
PAR4 [1] = target: T2, PAR4 (Homo sapiens, UniProt Q96RI0); experiment: ELISA binding ratio to PAR4
T2 construct: host or cells: synthetic peptide
Protocol: 96-well ELISA plates were coated with 50 μl of antigen diluted to a concentration of 4 μg/ml in coating buffer (0.1M Sodium Hydrogen Carbonate (NaHCO3) (Merck, #1.06329.0500)). Plates were incubated overnight at 4° C.
Wells were then washed with an automated plate washer (300 μl 1×PBS, 3 times). The wells were blocked with 200 μl of blocking buffer (3% BSA/1×PBS (BSA: (Sigma, #1001647742)) for 1 hour at room temperature followed by washing as above.
50 μl of undiluted hybridoma cell culture supernatant was added into appropriate wells and incubated at room temperature for 1 hour followed by washing as above. […] Wells were washed as above. A set of substrate tablets (1×silver, 1×gold) into 20 ml of ddH20 by shaking vigorously on the thermomixer for 6 mins at room temperature. 50 μl of substrate ([…]™ p-Nitrophenyl phosphate Tablets (Sigma-Aldrich, N2770-50SET)) was added into each well and incubated for 20-25 mins at room temperature. […] Absorbance was read at 405 nm immediately after adding STOP solution with the ELISA reader, using the ‘RdrOle4’ software.
Hybridoma supernatants were initially screened for binding to the immunising PAR4 peptide sequence ([…]-KLH (SEQ ID NO: 4)) by antigen microarray, with binding determined by fluorescence intensity signal over background (signal from medium alone). […]

PAR4 [2] = target: T1, PAR4; experiment: Functional bioassays for PAR4 inhibitory function; type: cell-based
human platelets = experiment: Functional screen of hybridoma supernatants by platelet aggregation assay; type: cell-based; details: aggregation as % of control
Protocol: Platelet aggregation was measured by light transmission aggregometry in a 96-well plate format. Human isolated platelets (2×10^8/ml) were pre-treated for 10 mins at 37° C. with dimethylsulfoxide (DMSO) (1% v/v), the PAR1 antagonist vorapaxar (90 nM), the anti-PAR4 antibody 5RC3 (20-100 μg/ml), or a combination of vorapaxar and 5RC3. Platelets were treated with one of thrombin (0.1 U/ml) and aggregation was analysed at 37° C. in a FLUOstar OPTIMA plate reader (BMG Labtech) using a 595 nm excitation filter, for a period of 50 min (10 read cycles with 5 min double orbital shake period between each read). Optical density was normalised against the blank (maximum) and unstimulated platelets (minimum) and expressed as % maximum.
Thrombin-induced platelet aggregation in the presence of a PAR1 antagonist (i.e. PAR4-dependent aggregation) is shown for 30 monoclonal antibody supernatants binding to human platelets. Antibody supernatant was mixed with human platelets (2×10^8 cells) at a 1:1 ratio.

Molecule | binding to PAR4 (PAR4 [1]) | PAR4 inhibitory (antagonist) function (PAR4 [2]) | Functional screen on hybridoma supernatants (human platelets)
B1 | bound to PAR4 | did not demonstrate inhibitory function against PAR4; also recorded: did not function as an antagonist | 
B2 |  |  | no

Reference: patent publication US12441790B2, “Binding proteins to the human thrombin receptor, PAR4” (MONASH UNIVERSITY, priority 2017, dated 2025)
